# Reference: the supplement of paper PMC3334620
# The full ranking holds about 33,000 sequences; the median of “E-score (-0.5 to 0.5)” is about -0.054, and the highest 2% start at about 0.35. The list shows a part of the results.
# Molecular target: T1, Stb5 (UniProt P38699)
# T1 sequence: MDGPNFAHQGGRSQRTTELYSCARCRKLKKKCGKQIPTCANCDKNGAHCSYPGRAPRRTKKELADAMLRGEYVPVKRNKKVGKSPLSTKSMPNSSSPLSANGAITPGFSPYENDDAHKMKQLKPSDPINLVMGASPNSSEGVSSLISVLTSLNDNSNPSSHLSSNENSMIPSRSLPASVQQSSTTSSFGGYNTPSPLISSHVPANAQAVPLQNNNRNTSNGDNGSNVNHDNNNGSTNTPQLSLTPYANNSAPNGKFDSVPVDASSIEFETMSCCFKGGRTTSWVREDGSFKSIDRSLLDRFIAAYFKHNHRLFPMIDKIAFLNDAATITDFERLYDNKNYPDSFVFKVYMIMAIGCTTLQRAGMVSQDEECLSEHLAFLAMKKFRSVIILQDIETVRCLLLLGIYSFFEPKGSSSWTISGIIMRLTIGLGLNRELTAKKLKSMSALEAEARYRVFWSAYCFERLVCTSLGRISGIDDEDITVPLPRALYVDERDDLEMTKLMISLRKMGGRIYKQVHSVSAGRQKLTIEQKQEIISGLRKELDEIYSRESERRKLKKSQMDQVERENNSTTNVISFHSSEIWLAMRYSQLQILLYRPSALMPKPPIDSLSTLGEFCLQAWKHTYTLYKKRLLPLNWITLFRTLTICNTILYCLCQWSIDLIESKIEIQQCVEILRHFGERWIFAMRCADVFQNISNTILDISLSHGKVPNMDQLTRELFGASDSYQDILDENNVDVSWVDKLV
# Experiment: PBM E-score (8-mer binding enrichment) (E-score (-0.5 to 0.5)); higher = stronger / more preferred TF binding; most listed sequences are background and not binding sites
# Settings: protein concentration: 200 nM; construct: GST-full length
# In short: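 Universal all-10-mer Agilent arrays, double-stranded by primer extension on fresh or once-stripped slides, were probed with about 100-200 nM GST-tagged yeast transcription factors made by PURExpress. Fluorescent anti-GST detected bound protein, and masliner normalised the scans. E-scores from the Universal PBM Analysis Suite were given to each ungapped eight-base word pooled with its reverse complement.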
row,Sequence,PBM E-score
1,CCAGTCAA,-0.296
2,ACTCCGGA,0.355
3,AATAGATC,0.0939
4,CGCGAGGC,0.00115
5,ATGCGAAT,-0.0634
6,GAAAATGA,-0.0725
7,AATAATGA,-0.0387
8,AGACTACC,-0.151
9,ATCAAACC,0.0713
10,GCATAGCC,-0.134
11,AACGAGTA,-0.106
12,CGTGGATA,0.0322
13,AGCACACT,-0.21
14,AAGCGGTC,0.26
15,ATCCAGTC,-0.0623
16,GCGGTACA,0.296
17,ACGTTCAG,-0.26
18,ATCAGATC,-0.216
19,CAATTGTA,-0.111
20,ACAACCCC,0.108
21,GATGGTAC,0.0392
22,AGGGACTG,-0.202
23,ATACGCGG,0.247
24,GTGTTTAA,0.165
25,ACGATTAG,-0.266

row,Sequence,PBM E-score
1,GCAAAAGA,-0.0404
2,ATAGCCCG,0.176
3,AAGTGATT,-0.0326
4,ATTCCTCC,0.159
5,CTAACGAA,-0.00775
6,CTGTTCGA,-0.175
7,GGGTGAAC,0.0974
8,ATAGACCG,0.239
9,GACTTTTA,0.0546
10,CTGTTGCC,-0.037
11,CTTCGCTC,0.0297
12,GGTTAATA,0.213
13,CAGCTGGG,-0.0897
14,CTGCCGTC,0.121
15,GAAATCCA,-0.0752
16,CATTTCAC,-0.0886
17,TAATCAGA,0.0338
18,GCCCTCAC,-0.0791
19,CTCCGCAC,0.21
20,CATCTGCC,0.0249
21,AACTGCTC,-0.231
22,CCTGGGGC,-0.19
23,ACATGAAT,-0.255
24,CGCTCTCC,0.0161
25,CCCCTCCA,-0.0355

row,Sequence,PBM E-score
1,ACGATGGG,-0.12
2,CTATAACA,0.0862
3,AGATTCCC,0.0129
4,ATAGCCTA,-0.279
5,AGGCTTAT,-0.239
6,ATAACGGA,0.252
7,GTCTTAGA,-0.00713
8,CGTGCAAC,-0.0492
9,AATACAGG,0.0627
10,GCTGCTAA,0.122
11,GTTGGCTA,-0.238
12,ACGCGCCC,0.0789
13,AACAGATC,-0.277
14,GGGTTACC,0.138
15,CCATTATC,0.0468
16,CCAGTCCG,0.163
17,CTAAATGC,0.134
18,GGGGGAAA,0.165
19,AAAGGGAA,-0.00346
20,AACGAATG,-0.273
21,CAGTATAC,-0.0649
22,CGGGGTTC,0.388
23,CAAATACG,-0.129
24,ATTCAGCA,-0.272
25,CTTTTCAA,0.117

row,Sequence,PBM E-score
1,GGAGCCCC,0.144
2,CAAAGAGC,0.0172
3,GAAAATAC,0.102
4,CCTTGTGC,-0.164
5,CGCCGAGC,0.261
6,GAGGTTAC,0.0589
7,CGTAGACA,-0.0236
8,TGCCCCAA,-0.123
9,CCGTAAAG,0.149
10,AAATCATG,-0.141
11,CTGGTGGA,-0.253
12,GGCGCCCA,-0.113
13,AAAGGTAC,-0.00399
14,AATCGATG,-0.167
15,ATACTGAG,-0.127
16,CATGTCAC,0.0398
17,TCCCCCGA,0.263
18,CCAAAATA,0.104
19,ATGCGAAG,-0.246
20,ATCCGAGG,0.0334
21,AGGTTGCA,-0.201
22,CCAGGAGG,-0.238
23,CAGGCCAG,-0.182
24,CAGACAAG,-0.124
25,GATGGTTA,-0.0293

row,Sequence,PBM E-score
1,AAATCGAA,-0.244
2,ATTAGAAG,-0.143
3,CAACAGAA,-0.096
4,AGGGACCA,-0.272
5,ACTGTTAG,-0.316
6,AGTCTACC,-0.00578
7,GCTCCGCC,0.347
8,ACGTTCGG,0.104
9,GCACGAGC,-0.0836
10,GCATAGAC,0.13
11,AGAAACAT,-0.163
12,CACTAACC,-0.122
13,AGGACAGC,-0.101
14,GACACCCC,0.014
15,CGAAGTGA,-0.226
16,ACAAGTGA,-0.0645
17,ATGAGCAA,-0.0315
18,AAGACGAT,0.0211
19,GCGTACTA,-0.0242
20,AGCGCGCC,0.106
21,CCAACGGA,0.188
22,GCTACTCA,-0.153
23,ATACAGGA,-0.0578
24,AACGATCT,0.00102
25,ACCATCGG,0.165

row,Sequence,PBM E-score
1,AGCGCACT,0.145
2,ACCGCGTA,0.313
3,CTCAACTC,-0.154
4,AGAAACTC,0.0104
5,CCGGTCAC,0.227
6,CATCCAGG,-0.248
7,GGAACCAC,0.131
8,AAGCCGGC,0.225
9,AGCGTATA,-0.0484
10,ATATACTC,-0.0452
11,CACTATAA,-0.0214
12,ACGCAGCT,-0.161
13,AGCAATTG,0.0348
14,GCGGTCTA,0.23
15,CCAAGGTC,0.0782
16,AAATCCGA,0.332
17,CGTGGTAG,-0.145
18,GTGACCTA,-0.144
19,CGCTGATC,0.0743
20,CCCCATAC,-0.106
21,CCTTGTAC,-0.143
22,AGTTTTGG,-0.0302
23,AGCTCAGG,-0.185
24,ACGGACTA,0.288
25,AAACAGAC,-0.131

row,Sequence,PBM E-score
1,GGTGAATA,0.0403
2,CCGTCGCC,0.296
3,ATCTGATC,-0.162
4,CGCTTAAG,0.125
5,TAACCGAA,0.0166
6,AACGTTCA,-0.083
7,ATCAAAAT,-0.22
8,GGTAGGAA,-0.089
9,CATGCGTA,-0.141
10,AGGGCATC,-0.208
11,AATACTAA,-0.174
12,CCAAGAAA,-0.219
13,TGCACGCA,-0.0348
14,CTCGGGCA,0.0971
15,AGACCATA,-0.139
16,CTTAGTGA,-0.0497
17,ATGACTCC,0.145
18,CGAGCCGA,-0.145
19,GGTACCCA,-0.0736
20,AAGGGCCG,0.34
21,AACATGCC,0.122
22,ATTACCAA,-0.0501
